The assay has as its system K24384-001-R-PDC complex spheroids, viability. In words: Anticancer human tumor K24384-001-R-PDC patient-derived pancreatic adenocarcinoma cell line growth inhibition [GQUAD]. The conditions noted are these: for viability, T/C: stronger effect = lower value. From the text:
DNA G-quadruplex Stabilizer Agents in Combinations in Complex Spheroids
A high-throughput screen of multi-cell type tumor spheroids was designed to identify active combinations of DNA G-quadruplex stabilizer agents and targeted small molecules. Complex spheroids include a stromal component modeled by human endothelial cells (HUVEC) and fibroblasts modeled by human mesenchymal stem cells (MSCs). The concentration ranges selected for each drug and investigational agent were based upon clinically achievable concentrations if the clinical Cmax of the agent was known.
Compounds. The drugs and investigational agents: pidnarulex (CX-5461; NSC782164), APTO-253 (NSC789042), BRACO-19 (NSC847499), peposertib (NSC802822), ceralasertib (NSC780249), elimusertib (NSC800525), camonsertib (NSC841442), AZD-1390 (NSC803789), olaparib (NSC753686), talazoparib (NSC767125), ART-558 (NSC835418), sotorasib (NSC818433), MRTX-1133 (NSC836407), SN-38 (NSC673596), topotecan (NSC609699), etoposide (NSC141540), doxorubicin (NSC123127), gemcitabine (NSC613327), 5-fluorouracil (NSC19893), paclitaxel (NSC125973), vemurafenib (NSC761431), panobinostat (NSC761190), R-306465 (JNJ-16241199; NSC773264), adavosertib (NSC754352), TP-3654 (NSC805149), carboplatin (NSC241240), KSQ-4279 (NSC840948), and staurosporine (NSC755774) were obtained from the National Cancer Institute (NCI) Developmental Therapeutics Program Chemical Repository (34). The FDA-approved anticancer drug set is available from the NCI Developmental Therapeutics Program. […] The stock solutions were prepared in dimethyl sulfoxide (DMSO, Sigma-Aldrich, St. Louis, MO, cat. D2650) at 800-fold the tested concentration and stored at -70 degrees C prior to their use. All drugs and investigational agents were tested over a range starting from a high concentration at or near the clinical Cmax and decreasing in half-log increments. If the clinical Cmax for an agent had not been determined, the highest concentration tested was 10 microM.
2.3 Cell Culture. All cells were maintained in an incubator at 37 degrees C and 5% CO2 with 95% humidity. The PDC lines were cultured according to standard operating procedures established by the NCI PDMR. All PDCs were thawed and cultured in Matrigel-coated flasks prepared with a working solution of 1X Ham's F-12 nutrient mix, without supplementation (Invitrogen, cat. 11765054), 100 U/mL penicillin-streptomycin (Invitrogen, cat. 15140122), and 2.5% Matrigel (Corning Inc., cat. 354248) for the first three passages. The 857933-349-R-J2-PDC line was cultured in 6C/Colon 1B media, which includes advanced DMEM/F-12 (Thermo Fisher Scientific, cat. 12634028), 10 mM HEPES (Thermo Fisher Scientific, cat. 15630080), 1X GlutaMAX supplement (Thermo Fisher Scientific, cat. 35050061), 0.1 mg/mL primocin (InvivoGen, cat. ant-pm-2), 10% defined fetal bovine serum, heat inactivated (HyClone Laboratories Inc., cat. SH30070.03HI), 50% L-WRN conditioned media (ATCC, cat. CRL-3276), 1.25 mM N-Acetyl-L-cysteine (Sigma-Aldrich, cat. A9165), 10 mM nicotinamide (Sigma-Aldrich, cat. N0636), 1X B-27 supplement (Thermo Fisher Scientific, cat. 17504044), 1X N-2 supplement (Thermo Fisher Scientific, cat. 17502048), 10 microM Y-27632 dihydrochloride (Tocris Bioscience, cat. 1254), and 50 ng/mL human EGF recombinant protein (Thermo Fisher Scientific, cat. PHG0311). The 485176-168-R4-J1-PDC line was cultured in Panc media, which includes all 6C/Colon 1B media components plus 100 ng/mL human FGF-10 (Thermo Fisher Scientific, cat. 100-26), 500 nM SB-431542 (Selleckchem, cat. S1067), and gastrin (Tocris, cat. 3006).
[…]

Molecules are shown by their SMILES. A number of entries come with more than one value. This list holds those alone. The source may hold further records. Results that share an entry are repeated measurements in other runs, samples, wells, individuals or studies. Signs of the kind (2×) give the number of equal values in this list.
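Note: spheroids exposed to compounds for seven days.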

As to `CN(C)c1ccc(Nc2c3ccc(NC(=O)CCN4CCCC4)cc3nc3cc(NC(=O)CCN4CCCC4)ccc23)cc1`, the viability, T/C (compound alone 1 µM) was 90.3 (2×), 92.5, 83.5, 95.4, 86.1, 89.1, 80.2, 75.8, 91.1, 84.9, 101%; the viability, T/C (compound alone 3.16 µM) is recorded as 105, 93.5, 82.7, 96.6, 92, 81.8, 74.2, 102, 78.3, 89.3, 89.9, 86.2%; the viability, T/C (compound alone 10 µM) was 109, 94.5, 76, 84, 84.2, 75.9, 68.9, 77.5, 71.4, 87.5, 71.3, 99.2%.
For the molecule `Cc1cnc(CNC(=O)c2c(=O)c3ccc(N4CCCN(C)CC4)nc3n3c2sc2ccccc23)cn1`, the viability, T/C (compound alone 10 µM) is 30.2, 16.6, 21, 31.9, 39.8, 0.3, 23.7, 34.2, 37.1, 0.16, 12, 33.2%. In addition, the IC50 (compound alone, run of 02/20/2024) is recorded as 847 nM, 384 nM, 307 nM, 1.58 µM, 422 nM, 243 nM, 301 nM, 593 nM, 334 nM, 318 nM, 579 nM.
As for `Cc1[nH]c2ccc(F)cc2c1-c1nc2c3cccnc3c3ncccc3c2[nH]1`, the viability, T/C reads like this: (compound alone 1 µM) 86.8, 84.6, 90.2, 86, 85.7, 95.7, 86.1, 93.9, 93.5, 83.8, 68, 80.1%; (compound alone 10 µM) 52.1, 64.2, 58.3, 55.2, 61.6, 69.5, 52.9, 73.7, 74.7, 83.7, 82, 77.2%.
For `O=C(NO)c1cnc(N2CCN(S(=O)(=O)c3ccc4ccccc4c3)CC2)nc1`, under “compound alone 1 µM”, the viability, T/C was 0.98%, 22.9%, 27.9%.

In general, IC50 refers to the point on the concentration scale where inhibition reaches its midpoint.

Values taken from PubChem BioAssay AID2060483 (Molecular Pharmacology Branch, DTP, NCI, 2025).
